Hit rate of the full screen: of about 45,000 compounds, about 65 (0.1%) were called active. Calls come from the whole dose curve; as a rule, active = well fitted activation curve with a large enough effect; inconclusive = small, poorly fitted or top-dose-only effect; inactive = no such curve, though single readings can be large or run the other way. Some of the results follow.

Data on 98 compounds can be found in PubChem BioAssay AID1159614 (National Center for Advancing Translational Sciences (NCATS), 2016).

The experiment has as its target Galactocerebrosidase (Homo sapiens) (UniProt P54803). Briefly: A Novel Cell-Based Assay to Identify Small Molecules for B -Galactocerebrosidase. Note: 0% is about no effect; nearly all actives have a fitted effect of over 65% in size. The settings on record: 145M-Twi-hGALC-G270D cells (Twitcher mouse brain line with human GALC G270D), HMU-beta-Gal fluorescence, 48 h; series mostly up to 57.5 µM; activation: at the top concentration. In outline: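 Mutant human GALC (G270D), stably expressed in a Twitcher mouse brain cell line lacking endogenous GALC, is measured in live-treated cells via 6-hexadecanoylamino-4-methylumbelliferyl-β-galactoside hydrolysis (0.1 mM final, pH 5.2) with fluorescent detection.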
Sequence of UniProt P54803 (P54803 whole entry, looked up): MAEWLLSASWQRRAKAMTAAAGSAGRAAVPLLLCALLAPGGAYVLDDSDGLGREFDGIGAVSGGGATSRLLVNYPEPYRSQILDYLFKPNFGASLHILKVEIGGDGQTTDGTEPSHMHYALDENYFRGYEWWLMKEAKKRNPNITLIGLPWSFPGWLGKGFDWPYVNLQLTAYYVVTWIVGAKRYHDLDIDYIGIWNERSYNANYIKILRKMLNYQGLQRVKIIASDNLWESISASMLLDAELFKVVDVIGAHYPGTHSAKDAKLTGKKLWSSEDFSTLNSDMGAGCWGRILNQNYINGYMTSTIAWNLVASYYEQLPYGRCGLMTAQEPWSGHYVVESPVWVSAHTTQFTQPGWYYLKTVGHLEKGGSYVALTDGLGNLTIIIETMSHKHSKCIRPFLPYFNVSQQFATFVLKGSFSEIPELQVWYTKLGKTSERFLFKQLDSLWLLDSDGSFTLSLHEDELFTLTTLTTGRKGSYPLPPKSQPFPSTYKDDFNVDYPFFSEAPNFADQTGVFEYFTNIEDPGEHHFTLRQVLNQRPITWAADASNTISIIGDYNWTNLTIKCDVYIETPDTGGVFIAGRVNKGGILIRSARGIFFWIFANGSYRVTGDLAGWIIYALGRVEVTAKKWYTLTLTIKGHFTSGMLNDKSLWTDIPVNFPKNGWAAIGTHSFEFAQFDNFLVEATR
Take `COc1ccc(Cn2ccc3nc(C)c(C(=O)NCc4cccc(OC)c4)cc3c2=O)cc1`: the “activation” value was inactive: -15.5%.
For `Cc1ccc(-n2nc3c(=O)n(CC(=O)NCC(C)c4ccccc4)nc(C)c3c2C)cc1` (stereo not drawn), the “activation” value was inactive: -8.63%.
Then `CCOc1cc2sc(N3CCC(C(=O)Nc4cc(C)cc(C)c4)CC3)nc2cc1Br`, with inactive: -26.1%.
With `Cc1cc(=O)c2cc(C(=O)Nc3ccccc3C)ccc2[nH]1`, the “activation” value is inactive: -10.4%.
Take `CCOc1ccc(CNC(=O)CCCc2cn(C)c3ccccc23)cc1OC`: the “activation” value is inactive: 7.54%.
Regarding `COC(=O)c1cc2sc(Cl)cc2n1Cc1cc(C)ccc1C`, the “activation” value was inactive: -11.2%.
Regarding `CCn1cc2c(n1)-c1c(oc(C(=O)Nc3cccc(C(F)(F)F)c3)c1C)CC2`, the “activation” value is inactive: -18.7%.
In the case of `COc1ccccc1Cn1cc(C(=O)c2ccc(C)cc2)c(=O)c2cc3c(cc21)OCCO3`, the “activation” value is inactive: -9.82%.
With `COC(=O)c1ccc(CSc2nnc3ccc4ccccc4n23)cc1`, the “activation” value was inactive: -10.7%.
As to `COc1cc(F)c(S(=O)(=O)Nc2c(C)n(C)n(-c3ccccc3)c2=O)cc1OC`, the “activation” value is inactive: -17.3%.
`COc1ccccc1-c1noc(CCCC(=O)Nc2cc(C)ccc2C)n1`: the “activation” value was inactive: -15.7%.
Take `COc1ccc(C(=O)Nc2ccc(C(=O)OCc3cc(=O)n4nc(C5CC5)sc4n3)cc2)cc1`: the “activation” value is inactive: 11.1%.
Turning to `O=C(CN1CCSc2ccccc21)N1CCN(c2ccc(F)cc2)CC1`, the “activation” value was inactive: -7.9%.
For the compound `Cc1ccc(N(C)C(=O)c2cc(S(=O)(=O)N3CCOCC3)cn2C)cc1`, the “activation” value was inactive: -0.713%.
In the case of `CCCN(Cc1cccs1)C(=O)Nc1cc(OC)ccc1OC` it was inactive: -19.7%; in that of `COc1ccc(CCNC(=O)CCCCn2c(=O)c3ccccc3n(Cc3ccccc3Cl)c2=O)cc1OC`, inactive: -20.6%; in that of `COc1ccc(OC)c(S(=O)(=O)NCCc2csc(-c3cccc(F)c3)n2)c1`, inactive: 2.89%.
In the case of `CCOC(=O)c1c(C)[nH]c(C)c1S(=O)(=O)NCC(=O)N1CCN(c2ccccc2OC)CC1` it was inactive: -15.2%; in that of `CCN(CC)C(=O)Nc1ccc2c(c1)N(Cc1ccccc1)C(=O)c1ccccc1S2`, inactive: -11.4%; in that of `Cc1ccc(-n2nc3c(N4CCC(C(=O)NCc5ccccc5Cl)CC4)nnc(C)c3c2C)cc1`, inactive: -6.12%.
Take `CC(=O)c1ccc(NC(=O)CCOc2ccccc2)cc1`: the “activation” value is inactive: -10.5%.
In the case of `COc1cc(C2c3c(-c4ccccc4O)n[nH]c3C(=O)N2Cc2ccco2)ccc1OCC(C)C` (stereo not drawn) it was inactive: -11.8%.
In the case of `CCOc1ccccc1NC(=O)C(CC)n1c(C(=O)OC)cc2occc21` (stereo not drawn), the “activation” value was inactive: -14.1%.
For the compound `COc1cc(C(=O)NC(c2ccc(Cl)cc2)c2cc(Cl)c3cccnc3c2O)cc(OC)c1OC` (stereo not drawn), the “activation” value is inactive: -15.1%.
In the case of `CCc1cccc(C)c1NC(=O)CN1CCCN(Cc2ccccc2Cl)S1(=O)=O` it was inactive: 3.15%; in that of `O=S(=O)(c1ccc(-n2cnnn2)cc1)N1CCN(c2cccc(Cl)c2)CC1`, inactive: 17.1%.
`Cc1c(C(=O)N2CCCCCC2)c(S(=O)(=O)N(Cc2ccccc2)C(C)(C)C)c(C)n1C`: the “activation” value was inactive: -13.3%.
`COc1ccc(Nc2oc(/C=C/c3cccc(OC)c3)nc2C#N)cc1`: the “activation” value is inactive: 2%.
With `CCCn1c(=NC(=O)c2cc3ccccc3o2)c(C(=O)OCC)cc2c(=O)n3ccccc3nc21`, the “activation” value is inactive: -9.13%.
Consider `CCCCN(CC)CCNC(=O)C1CCCN(S(=O)(=O)c2cccc3nsnc23)C1` (stereo not drawn), for which the “activation” value is inactive: -14.9%.
Consider `O=C(Cn1ncc2ccsc2c1=O)N1CCN(c2ccccc2F)CC1`, for which the “activation” value was inactive: -6.07%.
On to `Cc1ccc(-n2c(=O)c3cccnc3n2CC(=O)Nc2cc(Cl)ccc2C)cc1`, for which the “activation” value is inactive: -0.918%.
Then `O=c1cc(-c2ccccc2)n2c(SCc3c(F)cccc3Cl)nnc2[nH]1`, with inactive: -19.5%; and `COc1ccc(C(CC(=O)NCc2ccccc2Cl)N2Cc3ccccc3C2=O)cc1OC` (stereo not drawn), with inactive: -11.5%.
Consider `CCCc1nn2c(=O)cc(COc3ccc(/C=C(\C#N)C(=O)Nc4ccccc4)cc3)nc2s1`, for which the “activation” value was inactive: -7.51%.
Turning to `CC(C)CC(=O)NC1(C(F)(F)F)C(=O)Nc2c1c(=O)[nH]c(=O)n2-c1ccccc1` (stereo not drawn), the “activation” value was inactive: -9.27%.
Regarding `Cc1ccc(NC(=O)C(=O)NCc2ccco2)cc1`, the “activation” value is inactive: 4.53%.
Turning to `Cc1ccc(NC(=O)CN(C)S(=O)(=O)c2cnc[nH]2)cc1`, the “activation” value was inactive: -14.1%.
Take `COc1ccccc1OCC(=O)NCC(c1ccc(Cl)cc1)N1CCOCC1` (stereo not drawn): the “activation” value is inactive: -10.9%.
As for `Cc1ccc(NC(=O)Cn2c(=O)n(CCCCC(=O)NCc3ccccc3Cl)c(=O)c3ccccc32)cc1`, the “activation” value was inactive: -8.08%.
In the case of `Cc1ccc(C)c(CN2C(=O)c3ccccc3S(=O)c3ccc(C(=O)N4CCN(c5cccc(Cl)c5)CC4)cc32)c1` (stereo not drawn) it was inactive: -4.03%; in that of `CCc1ccc(C2=NN(CCC(=O)NCCc3ccc(OC)c(OC)c3)C(=O)CC2)cc1`, inactive: -9.21%; in that of `CCCOc1ccc(-c2nonc2NC(=O)c2cc(OC)c(OC)c(OC)c2)cc1OCCC`, inactive: -7.66%.
In the case of `CC(C)c1nn2c(=O)cc(COC(=O)c3cccc(NC(=O)c4cccs4)c3)nc2s1` it was inactive: -4.78%; in that of `CCc1ccccc1NC(=O)CCOc1ccccc1`, inactive: -12.7%.
As to `Cc1ccc(N2CC(NC(=O)c3cc4ccccc4o3)CC2=O)cc1C` (stereo not drawn), the “activation” value is inactive: -4.39%.
On to `COc1ccccc1CNS(=O)(=O)c1ccc(-c2cnc(C3CC3)o2)cc1`, for which the “activation” value is inactive: -5.19%.
In the case of `Cn1ccc2c(OCC(=O)NCc3ccccc3)cccc2c1=O` it was inactive: -3.57%; in that of `COCCNC(=O)c1c[nH]c2ccc(S(=O)(=O)Nc3ccc(F)cc3F)cc2c1=O`, inactive: -13.2%.
On to `CCOC(=O)c1cnc2nc(NCc3cccc(Br)c3)[nH]n2c1=O`, for which the “activation” value is inactive: 2.26%.
As to `COc1ccc(CSc2nc3ccncc3n2CC(=O)Nc2ccc(C)c(F)c2)cc1`, the “activation” value was inactive: -7.34%.
Consider `CCc1ccccc1NC(=O)Cn1c(=O)n(-c2ccc(CC(=O)NCC3CCCO3)cc2)c(=O)c2ccccc21` (stereo not drawn), for which the “activation” value was inactive: 1.71%.
`COc1ccc(CNC(=O)c2ccc3c(c2)N(Cc2ccc(C)cc2)CCS3)cc1`: the “activation” value was inactive: -15.4%.
As to `Cc1ccccc1C(=O)Nc1ccc2nc(SCC(=O)N3CCc4ccccc43)sc2c1`, the “activation” value is inactive: -19%.
Regarding `COc1ccc2c(c1)Cc1sc(NC(=O)c3cccc(C)c3)nc1-2`, the “activation” value was inactive: -21.3%.
`Cc1ccc(CNC(=O)C2COc3ccccc3C2)cc1` (stereo not drawn): the “activation” value is inactive: 5.18%.
Then `COc1ccccc1CNC(=O)CC(c1ccc(C)cc1)N1Cc2ccccc2C1=O` (stereo not drawn), with inactive: 10.3%.
As for `COc1ccc(CCNC(=O)CCS(=O)(=O)c2cc(Br)cc3c2N(C(C)=O)CC3)cc1OC`, the “activation” value is inactive: -14.2%.
In the case of `Cc1cc(C)cc(-n2ccn(Cc3ccccc3C)c(=O)c2=O)c1` it was inactive: -0.0382%.
In the case of `Cc1cc(C)cc(NC(=O)C2CCCN2S(=O)(=O)c2ccc3c(c2)CCCC(=O)N3)c1` (stereo not drawn) it was inactive: -8.89%.
`Cc1ccccc1NC(=O)c1sc2nc3n(c(=O)c2c1C)CCC3`: the “activation” value was inactive: -16.9%.
In the case of `Cc1ccc(OCC(=O)OC2=C(C(=O)c3ccccc3)N(C)S(=O)(=O)c3ccccc32)cc1` it was inactive: -24.2%; in that of `CCc1ccc(NS(=O)(=O)c2cc(-c3cnc(C4CC4)o3)ccc2C)cc1`, inactive: 14.2%.
For the compound `Cc1oc(-c2ccc(C(=O)NCCC(C)C)cc2)nc1CN1CCc2ccccc21`, the “activation” value is inactive: -24.4%.
Consider `Clc1ccc(-c2nc3c4cnn(-c5ccccc5Br)c4ncn3n2)c(Cl)c1`, for which the “activation” value was inactive: -9.41%.
In the case of `COC(=O)CSc1nc2sc3c(c2c(=O)n1-c1ccccc1C)CC(C)(C)OC3` it was inactive: -15.5%.
On to `Cc1ccc(-n2nnc(-c3nc(-c4cccs4)no3)c2N)c(C)c1`, for which the “activation” value is inactive: -13.4%.
In the case of `O=S(=O)(Nc1cccc(C(F)(F)F)c1)c1ccc(-c2cnc(C3CC3)o2)cc1` it was inactive: -3.1%; in that of `COc1ccc(S(=O)(=O)c2c(C(=O)c3ccc(C)c(C)c3)cnc3ccc(F)cc23)cc1`, inactive: -7.97%; in that of `CC(C)c1ccc(OCC(=O)Nc2c(C(=O)c3ccc(F)cc3)oc3ccccc23)cc1`, inactive: -0.77%.
On to `COc1ccc(S(=O)(=O)NCc2cccn2Cc2cccc(C)c2)cc1`, for which the “activation” value was inactive: 0.0761%.
For the compound `CCCCCSc1nc2sc3c(c2c(=O)n1-c1ccc(OC)cc1)CCN(C(C)=O)C3`, the “activation” value was inactive: -2.17%.
Turning to `COc1ccccc1NC(=O)CC(c1cc(OC)c(OC)c(OC)c1)N1Cc2ccccc2C1=O` (stereo not drawn), the “activation” value was inactive: -15.8%.
For the compound `COc1ccccc1CNC(=O)Cn1ncn2c(cc3sccc32)c1=O`, the “activation” value was inactive: -19%.
`Cc1ccc(Nc2c(-c3ccsc3)nc3c(C)cccn23)cc1`: the “activation” value is inactive: -50.1%.
For the compound `Cc1c(C)n(C)c2ccc(C(=O)NCc3cccc(F)c3)cc12`, the “activation” value is inactive: -7.06%.
In the case of `COc1cc2c(cc1NC(=O)COc1ccc(Cl)cc1Br)oc1ccccc12` it was inactive: -22.5%; in that of `CCOC(=O)CSc1nnc2n(-c3ccccc3)c(=O)c3c4c(sc3n12)CC(C(C)(C)C)CC4` (stereo not drawn), inactive: -29.2%; in that of `COc1ccc(C(=O)Nc2ccc(-n3nncc3-c3ccccc3)cc2)cc1OC`, inactive: -12.1%.
In the case of `Cc1cccc(N2CCN(C(=O)Cn3ncc4c5ccccc5n(C)c4c3=O)CC2)c1C` it was inactive: -9.12%; in that of `Cc1cc2oc(=O)cc(C)c2c2occ(-c3ccc(Cl)cc3)c12`, inactive: -18.4%; in that of `COc1cc(OC)cc(-c2cc3nc(C)c(CCC(=O)NCc4ccc(Cl)cc4)c(C)n3n2)c1`, inactive: -12.1%.
With `CCc1ccccc1Nc1nc2ccccc2c2nncn12`, the “activation” value was inactive: -4.51%.
Take `CCc1ccc(S(=O)(=O)c2cn(Cc3ccccc3)c3cc(F)c(F)cc3c2=O)cc1`: the “activation” value was inactive: -16.8%.
Turning to `Cc1ccc(-n2nc(CO)c(C(=O)NCc3cccnc3)n2)cc1`, the “activation” value is inactive: -5.59%.
Consider `COc1ccc(OC)c(CNC(=O)C2CCN(c3nc4ccccc4nc3C(F)(F)F)CC2)c1`, for which the “activation” value was inactive: -14.8%.
In the case of `Cc1ccc(C)n1-c1nnc(N2CCCC(C(=O)NCc3cccc(F)c3)C2)s1` (stereo not drawn) it was inactive: 4.52%; in that of `Clc1ccc(C(c2ccccc2)c2c[nH]c3ccccc23)s1` (stereo not drawn), inactive: -4.6%.
With `Cc1ccc2[nH]c3c(=O)n(CC(=O)N4CCCCC4)ncc3c2c1`, the “activation” value is inactive: -5.41%.
Take `CCCCc1c(C)nc2c(-c3ccc(OC)cc3)c(C)[nH]n2c1=O`: the “activation” value was inactive: -1.01%.
`Cn1c(CN2CCCCC2)nc2cc(NC(=O)c3ccccc3Cl)ccc21`: the “activation” value is inactive: 0.439%.
In the case of `CCCCNC(=O)CCCn1c(=O)c2ccccc2n(Cc2cccc(Cl)c2)c1=O` it was inactive: 0.803%.
For `Cc1ccc(OCC(=O)Nc2ccc3nc(SCC(=O)N4CCOCC4)sc3c2)cc1`, the “activation” value is inactive: -6.55%.
In the case of `COc1ccccc1NC(=O)CSc1ncc2c(n1)-c1cc(Cl)ccc1N(Cc1ccccc1)S2(=O)=O` it was inactive: 5.84%.
In the case of `CCOC(=O)c1cccc(NS(=O)(=O)c2ccc(-c3cnc(C4CC4)o3)cc2)c1` it was inactive: -14.1%; in that of `NC(=O)c1nc(Nc2ccccc2)sc1NC(=O)c1ccccc1Br`, inactive: -9.31%.
Take `COc1ccc2nc(NC(=O)c3nc(SC(C)C)ncc3Cl)sc2c1`: the “activation” value was inactive: -15.4%.
Then `Cc1ccc(C(C)OC(=O)C2(C)CCC(C(=O)O)C2(C)C)cc1` (stereo not drawn), with inactive: -8.77%.
